# Test results from paper PMC4336329 (PLoS ONE, 2015).
# About 2,200 (0.71%) of roughly 310,000 compounds showed an effect of 50% or more. Effects have a minus sign here. This is one part of the list.
# Target: human ether-à-go-go-related gene (hERG) potassium channel (human, UniProt Q12809)
# Experiment: primary screen, population patch clamp on CHO cells stably expressing hERG
# Chain of human ether-à-go-go-related gene (hERG) potassium channel (Q12809 whole entry, looked up): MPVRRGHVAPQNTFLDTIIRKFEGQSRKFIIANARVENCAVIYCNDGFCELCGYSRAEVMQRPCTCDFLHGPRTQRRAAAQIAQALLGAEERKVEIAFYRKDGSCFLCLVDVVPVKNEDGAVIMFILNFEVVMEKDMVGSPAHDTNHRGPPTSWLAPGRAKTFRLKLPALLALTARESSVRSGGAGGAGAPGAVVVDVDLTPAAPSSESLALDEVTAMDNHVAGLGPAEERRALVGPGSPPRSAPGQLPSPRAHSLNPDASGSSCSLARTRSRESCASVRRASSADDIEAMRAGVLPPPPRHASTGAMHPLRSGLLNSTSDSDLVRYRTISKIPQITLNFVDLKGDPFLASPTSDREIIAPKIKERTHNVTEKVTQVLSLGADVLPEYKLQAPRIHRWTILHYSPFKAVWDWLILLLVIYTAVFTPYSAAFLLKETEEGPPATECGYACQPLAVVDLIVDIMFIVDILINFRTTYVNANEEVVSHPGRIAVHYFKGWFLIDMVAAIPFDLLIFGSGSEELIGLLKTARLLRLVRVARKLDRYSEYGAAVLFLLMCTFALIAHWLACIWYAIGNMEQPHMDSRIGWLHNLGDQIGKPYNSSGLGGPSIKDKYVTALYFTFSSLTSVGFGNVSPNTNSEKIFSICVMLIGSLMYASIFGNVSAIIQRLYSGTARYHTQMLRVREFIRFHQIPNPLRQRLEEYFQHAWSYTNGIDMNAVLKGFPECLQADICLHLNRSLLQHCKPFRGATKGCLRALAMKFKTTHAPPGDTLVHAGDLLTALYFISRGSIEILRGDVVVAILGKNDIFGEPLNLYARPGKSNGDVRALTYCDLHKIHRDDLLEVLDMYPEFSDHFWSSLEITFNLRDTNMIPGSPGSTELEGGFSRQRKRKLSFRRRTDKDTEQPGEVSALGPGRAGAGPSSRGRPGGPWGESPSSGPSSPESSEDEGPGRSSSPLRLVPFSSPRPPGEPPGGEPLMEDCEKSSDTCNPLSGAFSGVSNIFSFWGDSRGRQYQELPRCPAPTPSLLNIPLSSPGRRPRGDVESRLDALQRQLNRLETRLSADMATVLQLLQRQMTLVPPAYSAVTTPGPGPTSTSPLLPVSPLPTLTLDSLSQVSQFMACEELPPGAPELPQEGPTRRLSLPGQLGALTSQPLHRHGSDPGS
row,SMILES,"hERG current change (%, negative = inhibition) at 1uM [%]"
1,O=C(C1CC(=O)N(c2ccc(F)c(Cl)c2)C1)N1CCC2(CC1)OCCO2 (centres unmarked),7.02
2,Cc1nc(CCNC(=O)CC2C(=O)NCCN2Cc2ccc(F)cc2)sc1C (centres unmarked),9.13
3,O=c1c(Cc2ccccc2)c(O)c2cccc3c4c(n1c23)CCCC4,6.44
4,O=C(c1ccccc1)N1CCN(Cc2ccccc2Br)CC1,10.4
5,COc1cccc(C(=O)N2N=C(c3ccccc3)CC2(O)C(F)(F)F)c1 (centres unmarked),10.6
6,CCc1ccccc1NC(=O)C1CCCN1S(=O)(=O)c1ccc(-c2ccc(=O)[nH]n2)s1 (centres unmarked),-0.779
7,Cc1cccc(C)c1NC(=O)N1C(C(=O)O)CSC1C(=O)O (centres unmarked),15.3
8,CCN(C(=O)COC(=O)/C=C/c1ccc(OC(F)F)c(OC)c1)C1CCS(=O)(=O)C1 (centres unmarked),8.13
9,Cc1ccc(S(=O)(=O)CCC(=O)OCC(=O)N(Cc2ccccc2)C(C)C)cc1,-3.08
10,CCc1nnc(NC(=O)c2ccc(S(=O)(=O)N3CCCC(C)C3)cc2)s1 (centres unmarked),12.2
11,CC(/C=N/NC(=O)c1cc(-c2ccc(C)o2)[nH]n1)=C\c1ccccc1,0.281
12,Cc1cccc(Nc2nnc(SCC(=O)Nc3ccc(C(=O)O)cc3)s2)c1,8.69
13,CCn1c(SCc2ccc(Cl)cc2)nc2nc3c(cc2c1=O)CCCC3,15.4
14,O=C(O)c1ccc(CN2C(=O)c3ccc(C(=O)O)cc3C2=O)cc1,0.521
15,N=c1sccn1CC(=O)Nc1cc(S(=O)(=O)N2CCCCC2)ccc1Cl,-7.38
16,COc1ccc(NC(=O)C(=O)c2cn(CC(=O)N3CCOCC3)c3ccccc23)cc1OC,11.6
17,CCNc1ccc(S(=O)(=O)N(C)C)cc1NCC(=O)Nc1c(F)cccc1F,-5.5
18,CC(=O)c1ccc(NC(=O)Nc2cccnc2)cc1,9.26
19,COc1ccc(OC)c(S(=O)(=O)Nc2cccc3ccc(O)cc23)c1,10.8
20,CN(C)c1ccc(CNS(=O)(=O)c2csc(C(N)=O)c2)cc1,13
21,CCOC(=O)C(=NC(C)C)NNc1cc(Cl)ccc1Cl,1.47
22,COc1ccc(Br)cc1CN(C)CC(=O)Nc1cccc(S(N)(=O)=O)c1,6.65

row,SMILES,"hERG current change (%, negative = inhibition) at 1uM [%]"
1,COc1cccc(C(C(=O)NC2CCCC2)N(C(=O)c2ccco2)c2ccc(C(C)=O)cc2)c1OC (centres unmarked),6.86
2,COc1ccc(C(=S)Nc2ccc(C)cc2)cc1,3.78
3,C=CC(C)(C)c1c(O)c(CC=C(C)C)c(O)c2c(=O)c3ccc(O)c(O)c3oc12,17.8
4,O=C(N/N=C/c1ccccc1O)C1(O)c2ccccc2-c2ccccc21,3.86
5,CCCNC(=O)C(Cc1ccccc1)NC(=O)c1ccccn1 (centres unmarked),12.1
6,C=CCOc1ccc(CNCc2cccnc2)cc1.Cl,10.6
7,CCc1cc(-c2[nH]ncc2-c2ccc([N+](=O)[O-])cc2)c(O)cc1OC,12.5
8,CC(=O)Nc1ccc(NC(=O)c2ccccc2N(C)S(C)(=O)=O)cc1,7.62
9,CCOC(=O)/C(=C\C=C1/Sc2ccccc2N1CC)C(C)=O,8.41
10,COc1ccccc1OCCNC(=O)C(CCSC)NC(=O)COc1ccccc1 (centres unmarked),7.39
11,CCC(C(=O)OCCN(CC)CC)c1ccccc1.O=C(O)CC(O)(CC(=O)O)C(=O)O (centres unmarked),11.6
12,CCCN(CC(=O)Nc1ccccc1C)C(=O)c1ccc(N2CCCCC2)c([N+](=O)[O-])c1,6.11
13,CCOn1c(=O)c(-c2cccc(Br)c2)[n+]([O-])c2ccccc21,12.9
14,Cc1cc(C)cc(C(=O)Nc2ccc(N3CCN(S(C)(=O)=O)CC3)cc2)c1,14.8
15,COc1ccc(OCC(=O)Nc2ccccc2Cl)cc1,13.8
16,COc1cc(Cl)c(C)cc1NC(=O)CSc1ccc(NC(C)=O)cc1,11.1
17,COCC(=O)N1CCC(n2nccc2NC(=O)CCOc2ccccc2)CC1,17.4
18,COc1cc2c(cc1OC)C(c1cccs1)NCC2 (centres unmarked),12.4
19,CCCn1nc([N+](=O)[O-])c(C(C#N)c2nc3ccccc3o2)c(Cl)c1=O (centres unmarked),8.61
20,CN(C)CC#CCOC(c1ccccc1)c1ccccc1.Cl,6.65
21,O=C1CCCCCC1C1(O)C(=O)Nc2ccccc21 (centres unmarked),-1.16
22,C#CCOCCOCCOCCNc1nc(N2CCN(C(=O)Cn3cc(CCC[NH+]=C(N)N)nn3)CC2)nc(N2CCN(C(=O)[C@H](CCCC[NH3+])n3cc(CCCC)nn3)CC2)n1.[Cl-],9.09

row,SMILES,"hERG current change (%, negative = inhibition) at 1uM [%]"
1,O=C(Nc1ccc(-c2csc(Nc3cccc(C(F)(F)F)c3)n2)cc1)c1cc([N+](=O)[O-])cc(C(F)(F)F)c1,5.25
2,COc1ccc(CCn2c(O)c(C=NCc3ccc4c(c3)OCO4)c(=O)[nH]c2=O)cc1OC,0.557
3,COc1cc2c(-c3cc(F)cc(F)c3)c(-c3ccsc3)oc(=O)c2cc1OC,13.7
4,CCN1C(=O)/C(=C/c2ccc(N(CC)CC)cc2OC)C(=O)NC1=S,5.05
5,COc1ccc(C(=O)Nc2ccc3c(c2)Cc2ccccc2-3)cc1,14.1
6,CN(C)CCNC(=S)Nc1ccc(-c2nc3ccccc3[nH]2)cc1,4.55
7,COc1ccc(-c2noc(-c3ccccc3C(=O)NCc3ccco3)n2)cc1,6.75
8,O=C(NCc1ccc(F)cc1)c1cc2c(s1)CCCC2,18.3
9,Cc1ccc(C(=O)N/C(=C\c2ccc(-c3cccc([N+](=O)[O-])c3)o2)C(=O)NC(C)(C)C)cc1,12.1
10,COc1ccc(NC(=S)Nc2cccc(S(=O)(=O)N3CCCCC3)c2)cc1,10.2
11,O=C(CSc1nnc(-c2ccncc2)o1)NCc1ccc(Cl)cc1,-6.86
12,Nc1ccc2ccc3cccc[n+]3c2c1.[O-][Cl+3]([O-])([O-])[O-],10.1
13,O=C1O/C(=C\C(=O)N2CCOCC2)c2ccccc21,8.33
14,CN(C)CCNc1c(N)c(=O)oc2ccccc12,5.18
15,O=C(CN1C(=O)NC2(CCCC2)C1=O)Nc1nc(-c2ccccc2)cs1,16.5
16,COc1cc(C(=O)Oc2ccc3c(c2)OCC3=O)cc(OC)c1OC,22.4
17,O=C1c2ccccc2C2=Nc3ccccc3SC(c3cccc(F)c3)C12 (centres unmarked),7.97
18,CCOc1ccccc1CN1CCN(Cc2cc3ccccc3[nH]2)CC1CCO (centres unmarked),-22.8
19,NS(=O)(=O)c1ccc(Sc2ccc3ccccc3c2)nc1,6.5
20,Nc1c(C(=O)Nc2ccc(F)cc2)nnn1-c1cccc(C(F)(F)F)c1,12.9
21,Cc1ccc(C(C)C)c(OCC#CCN2CCCC2)c1.O=C(O)C(=O)O,7.15
22,CC(C)CC1c2[nH]c3ccccc3c2CCN1C(=O)CCC(=O)N(C)C (centres unmarked),15

row,SMILES,"hERG current change (%, negative = inhibition) at 1uM [%]"
1,Cc1ccccc1C(=O)O/N=C(\N)c1ccncc1,16.2
2,C/C(=N\NC(=S)Nc1ccccc1C)c1ccc(O)cc1,4.36
3,Cn1c(SCc2ccccc2)nnc1-c1cccs1,9.3
4,COc1cccc(-c2nc(N3CCCC3)c3ccccc3n2)c1O,5.97
5,Cn1c(NC(=O)CCc2ccccc2)cc(=O)n(C)c1=O,6.58
6,CCC(C)NC(=O)CCC(=O)Nc1ccc2nc(N3CC(C)CC(C)C3)cc(C)c2c1 (centres unmarked),-1.08
7,CCOc1ccc(N2CC(O)=C(c3nc4ccccc4c(=O)[nH]3)C2=N)cc1,13
8,CCCNC(=O)N1[C@H]2CC[C@@H]1C(C(=O)OC)=C(c1ccc(F)cc1F)C2,14.9
9,O=[N+]([O-])c1ccc2c(c1)/C(=N\O)c1ccccc1-2,18.4
10,O=C(CN1c2ccccc2S(=O)(=O)c2ccccc21)NCc1ccccc1,12.5
11,CCOC(=O)/C=C/c1cnn(-c2ccccc2)c1,12.4
12,O=C(Nc1ccc(NC(=O)c2ccco2)cc1)c1ccc2c(c1)OCO2,11.7
13,O=C(CC1(O)C(=O)N(C/C=C/c2ccccc2)c2ccccc21)c1ccccn1 (centres unmarked),6.38
14,Cc1ccc(NC(=O)CSc2nnc(C3CCCCC3)n2N)cc1F,2.43
15,Cc1ccc(C)c(OCCn2cc(/C=C(/C#N)C(=O)NCC3CCCO3)c3ccccc32)c1 (centres unmarked),16.5
16,COc1ccc(C(CC(=O)NCC(OC)OC)NS(=O)(=O)c2ccc(Cl)cc2)cc1 (centres unmarked),8.3
17,O=C(CSc1nc(-c2ccco2)cc(C(F)(F)F)n1)N1CCc2ccccc2C1,7.98
18,Cc1nn(-c2ccc(Br)cc2)c(=O)c2ccccc12,14.3
19,COc1cc(NC(=O)C2=COCCO2)c(OC)cc1Cl,14.1
20,COc1ccc(NS(=O)(=O)c2cccc3nonc23)c(OC)c1,-1.12
